# Whole data set: some 33,000 sequences, median “E-score (-0.5 to 0.5)” near -0.053, cut for the highest 2% near 0.37. The list shows a part of the results.
# Biological target: Hap1 (UniProt P0CE41)
# Experiment: PBM E-score (8-mer binding enrichment) (E-score (-0.5 to 0.5)); higher = stronger / more preferred TF binding; most listed sequences are background and not binding sites
# Settings: protein concentration: 200 nM; construct: GST-DNA-binding domain
# Procedure: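 Universal 'all 10-mer' protein binding microarrays (Agilent AMADID 015681) probed with GST-tagged S. cerevisiae TFs (full-length or DBD) made by in vitro transcription/translation (PURExpress), about 100-200 nM. Bound TF was detected with fluorescent anti-GST. Each ungapped 8-mer (which stands for itself and its reverse complement) is scored by the PBM enrichment score (E-score), a modified Wilcoxon-Mann-Whitney statistic from -0.5 to +0.5, computed with the Universal PBM Analysis Suite. Scale: above 0.35 generally sequence-specific binding.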
# Sequence of UniProt P0CE41 (P0CE41 whole entry): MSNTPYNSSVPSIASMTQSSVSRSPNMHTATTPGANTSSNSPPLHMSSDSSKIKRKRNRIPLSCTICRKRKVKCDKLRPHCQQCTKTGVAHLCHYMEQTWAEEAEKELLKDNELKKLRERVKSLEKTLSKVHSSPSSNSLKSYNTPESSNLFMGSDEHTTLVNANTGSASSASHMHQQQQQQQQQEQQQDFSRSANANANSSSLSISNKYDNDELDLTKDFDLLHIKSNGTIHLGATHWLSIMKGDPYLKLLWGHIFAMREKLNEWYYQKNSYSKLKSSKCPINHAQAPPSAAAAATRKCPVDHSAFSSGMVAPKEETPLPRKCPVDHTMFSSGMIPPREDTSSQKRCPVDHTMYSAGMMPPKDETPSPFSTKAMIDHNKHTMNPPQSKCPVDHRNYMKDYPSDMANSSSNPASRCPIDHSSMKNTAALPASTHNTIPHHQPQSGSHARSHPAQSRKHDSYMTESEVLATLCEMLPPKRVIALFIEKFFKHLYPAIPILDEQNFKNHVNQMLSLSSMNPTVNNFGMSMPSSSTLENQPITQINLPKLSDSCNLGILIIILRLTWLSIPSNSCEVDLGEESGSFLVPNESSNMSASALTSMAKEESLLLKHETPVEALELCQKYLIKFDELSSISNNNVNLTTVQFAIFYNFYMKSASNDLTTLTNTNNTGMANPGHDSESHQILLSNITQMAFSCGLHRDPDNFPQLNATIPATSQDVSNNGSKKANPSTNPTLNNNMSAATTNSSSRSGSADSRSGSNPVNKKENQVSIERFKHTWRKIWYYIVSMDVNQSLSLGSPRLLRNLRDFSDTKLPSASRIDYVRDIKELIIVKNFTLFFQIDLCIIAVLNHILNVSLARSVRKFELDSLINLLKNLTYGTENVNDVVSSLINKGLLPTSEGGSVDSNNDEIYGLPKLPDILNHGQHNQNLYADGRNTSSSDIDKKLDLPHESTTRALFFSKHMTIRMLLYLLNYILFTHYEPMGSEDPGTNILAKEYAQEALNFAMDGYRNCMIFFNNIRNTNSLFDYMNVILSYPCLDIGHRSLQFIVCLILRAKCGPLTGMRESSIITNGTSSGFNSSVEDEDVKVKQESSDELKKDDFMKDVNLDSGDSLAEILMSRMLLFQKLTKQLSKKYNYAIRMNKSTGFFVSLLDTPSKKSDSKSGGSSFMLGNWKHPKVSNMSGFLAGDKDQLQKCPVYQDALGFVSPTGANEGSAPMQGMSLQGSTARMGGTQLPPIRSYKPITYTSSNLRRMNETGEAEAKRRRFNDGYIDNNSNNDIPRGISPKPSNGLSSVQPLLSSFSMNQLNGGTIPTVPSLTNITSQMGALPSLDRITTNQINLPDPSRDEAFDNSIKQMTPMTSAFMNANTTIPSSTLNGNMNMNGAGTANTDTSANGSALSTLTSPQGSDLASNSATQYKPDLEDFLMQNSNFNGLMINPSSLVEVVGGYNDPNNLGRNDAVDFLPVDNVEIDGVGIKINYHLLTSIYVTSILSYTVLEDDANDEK
row,Sequence,PBM E-score
1,CACGTTGA,-0.208
2,GGTTCGGA,0.373
3,AGCAAACG,0.0461
4,ATGAGCGA,0.0994
5,GTTTAGCA,0.0534
6,ATTTAACC,0.225
7,TCTACAGA,-0.163
8,ATGGGATG,-0.0363
9,ACCTAAGG,-0.194
10,ATTTTCGC,0.0139
11,CTGGCACA,-0.236
12,CAAATGAC,-0.121
13,GCGTAGTA,-0.0115
14,AATAGCAC,-0.0797
15,GCCAGGCC,0.0326
16,AACTCAAC,0.013
17,GTCATCAA,-0.222
18,GGGCTTTA,0.132
19,CACTTGTC,-0.00073
20,ACGCTGAA,-0.0377
21,GTCCAACA,-0.0782
22,CTTATGGC,-0.11
23,AAGACCGT,0.0453
24,CTAGCCGA,0.25
25,GCGCCTCC,-0.0192

row,Sequence,PBM E-score
1,TAACTCCA,0.204
2,AGTCCCGA,0.225
3,CTCGCTGC,-0.0701
4,AGTTAGGC,-0.113
5,AACGTCAT,-0.0725
6,AGCATCAA,-0.191
7,ACGTCCGG,0.411
8,GGCAATAC,0.239
9,CGAGACCG,0.279
10,GCCTTCGA,-0.243
11,ACCATGGC,-0.0677
12,CTTATCCA,-0.0982
13,CCATCCCG,0.0745
14,AAAAGATA,-0.00353
15,AACTCCTG,-0.0455
16,AACCGATA,0.421
17,TATCTCAA,-0.0851
18,GATTTGCA,0.00669
19,ATCAACAC,-0.154
20,CTTCATAC,-0.0879
21,ACATCTAG,-0.249
22,TCTAGACA,-0.23
23,CCGTGCGA,0.214
24,CTGAAAGA,-0.185
25,AGTGGAAA,-0.0732

row,Sequence,PBM E-score
1,AAGCAGAC,-0.107
2,ACGTAAGA,-0.281
3,TAATTCAA,-0.0714
4,GACTCGAA,-0.0617
5,GCGAGTCC,0.122
6,CTGTCGCC,-0.0019
7,ATCGGGCC,0.324
8,GAGCTCTA,-0.0284
9,CGCCTGGA,-0.138
10,AATCAACA,-0.0833
11,CTTGAGCC,0.00759
12,ATAGGCAT,-0.0698
13,CTGTCAAA,-0.317
14,GTCACACA,-0.119
15,ACTACTAT,-0.0167
16,GATGGCGC,-0.0122
17,CGTGGATC,-0.0375
18,CAAATTGG,-0.0778
19,AAATGGGA,-0.155
20,GCGAAAAA,0.105
21,AGACGGCC,0.073
22,TCGATAAA,0.146
23,CACTTTGG,-0.0975
24,AGACCTAC,-0.0878
25,CATCTAAG,-0.0624

row,Sequence,PBM E-score
1,AGGGGTTA,-0.0702
2,GCCTTCAC,-0.15
3,GGCTTGAA,-0.0379
4,CCAACCCG,0.138
5,CCTAGCTC,-0.0128
6,TAATCGAA,-0.085
7,GGTTTTAA,0.334
8,AGACCCTG,-0.282
9,AACATGCA,-0.198
10,CCACTGCA,-0.0925
11,CAAGATGG,-0.211
12,GTGCTTTA,-0.0684
13,CACACATG,-0.0761
14,GAGAGCGA,0.0311
15,AATTCGTA,-0.112
16,CCTTTGCC,-0.136
17,GGTGTGAA,-0.00686
18,CGTTGCAG,-0.238
19,ACATTAGA,-0.197
20,CCTAATAG,-0.159
21,ACACCGTG,0.0547
22,AATGGCGA,0.186
23,CCGGTTGC,0.294
24,ATATAGAG,-0.134
25,ACCTCCTA,-0.192

row,Sequence,PBM E-score
1,CAGAATCG,0.0556
2,CGACATAC,-0.0516
3,AGTTGGAT,-0.047
4,GCAGGATA,-0.141
5,AGTTACAC,-0.0432
6,GACGGCAC,-0.122
7,GTAAAGTA,-0.159
8,CAAGTGTC,-0.197
9,AACCAGAG,-0.12
10,CCAATGTA,-0.0843
11,GCACGACC,0.0214
12,ATTCCCTC,-0.083
13,AAGCGGGT,0.151
14,CCTTAAGA,-0.164
15,GAACAGAA,-0.00224
16,CGCAGGTA,0.149
17,AGCCGGAC,0.409
18,GGGGAGAA,0.0192
19,CGCCCCCC,-0.128
20,CGTTACTC,-0.043
21,CCGGTTAA,0.344
22,TATCATGA,-0.305
23,GACCCGAC,0.313
24,ACCTTATA,-0.0869
25,CCAAACGG,0.157

row,Sequence,PBM E-score
1,ACCTAGAA,-0.145
2,ATTTATAC,0.152
3,AATTGGCC,-0.0467
4,GCCTTCCA,-0.186
5,CTCGGCCA,0.334
6,ACGAGTAA,-0.00105
7,GCTCAGTA,-0.239
8,CTTATAAC,0.0543
9,ATACAGCG,-0.074
10,AAAGTTTG,-0.0236
11,CTACCCAC,-0.148
12,ACCTACTG,-0.144
13,CTGCGAGA,-0.215
14,GATCACCC,-0.0244
15,CGTGCACC,-0.0161
16,ACTGCTGG,-0.227
17,ACAATTCA,-0.229
18,TCCTGTAA,-0.232
19,ATGTATTC,0.196
20,ACACCTGC,-0.0479
21,CCCGGGCG,0.383
22,ACGTACTG,-0.144
23,CACGTAGG,-0.208
24,CGGAATTC,0.319
25,ACCGTGCC,-0.0781

row,Sequence,PBM E-score
1,CTTATTAC,-0.0999
2,ACGTATCG,0.0671
3,AGCGAGAA,-0.0045
4,TCAACAGA,-0.103
5,CGCAGTGC,-0.237
6,ACGTGCTC,-0.0949
7,CAGAAGCA,-0.181
8,ACGGCTCA,-0.0607
9,ATACTAAC,0.0458
10,CCGGTAAG,0.391
11,GCGCTCTA,-0.0257
12,TAACGCGA,0.0868
13,GATCGCGA,0.104
14,CTGTACAA,-0.0907
15,TACGGAGA,0.326
16,TGACGAAA,-0.12
17,TATCTAAA,0.0273
18,AGATTGTA,-0.243
19,AAAAAGCC,0.156
20,GGTTTCGA,0.0894
21,ATGGGGAG,-0.191
22,CAGGGCAC,-0.0797
23,GCAGTACC,0.114
24,ATCTGTAG,-0.107
25,GCCACAGC,-0.111

row,Sequence,PBM E-score
1,TACACGGA,0.224
2,AACTCAAA,-0.17
3,AAGCGACG,0.0809
4,CGTAAGCC,0.059
5,GTAGGTGA,-0.236
6,TCAGATGA,-0.204
7,AGTAATAG,-0.264
8,CGATGGCC,-0.0822
9,CTCGACTA,-0.18
10,AGGGGCCA,-0.179
11,CACATCGC,0.0343
12,AAAACGTC,-0.0353
13,AAAGCCAC,0.0488
14,AGGCCCGC,0.146
15,GATAGTAA,0.105
16,GTCAAAAC,0.0364
17,TATGTACA,-0.124
18,CCCACTAG,-0.234
19,GTGAGCTA,-0.237
20,TGCATCAA,-0.205
21,ATATAAAG,-0.0339
22,GGCGCATA,0.0763
23,CAAGACCG,0.186
24,ACTGCCTC,-0.00435
25,CATGAGAC,-0.0275

row,Sequence,PBM E-score
1,CTCTGAAG,-0.11
2,ATCATCCA,-0.0967
3,TGGCCTAA,-0.233
4,AACCGTCT,-0.00355
5,TGGCATAA,-0.164
6,CGACATAG,-0.127
7,TCCTGCAA,-0.144
8,CGTACGCA,-0.115
9,GGGGCGAC,-0.0967
10,TGACTGCA,-0.372
11,CTGGAGAC,-0.151
12,AAAAATTG,0.0279
13,AAAGGACG,-0.0881
14,CCGAAGTA,0.365
15,AGTTTTAT,-0.0975
16,CGCCATAC,-0.0654
17,TAGAAGAA,-0.0798
18,AATCAACT,0.0757
19,CAAATAAC,0.0155
